Among the data in patent publication US20250084172A1 (23ANDME, published 2025) are binding result and Kd values, retold here.

In assay [1] the target is T1, human soluble ULBP4 (hULBP4) (human, UniProt Q8TD07 31-225).
T1 construct: also called sULBP4
T1 sequence: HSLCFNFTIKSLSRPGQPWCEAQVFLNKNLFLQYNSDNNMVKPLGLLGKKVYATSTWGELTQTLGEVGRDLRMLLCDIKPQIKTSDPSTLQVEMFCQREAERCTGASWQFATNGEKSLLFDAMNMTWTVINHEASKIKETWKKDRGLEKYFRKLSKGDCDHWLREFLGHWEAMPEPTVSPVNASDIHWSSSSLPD
Briefly: SPR (BIACORE 8K, 37 C); hNKG2D-Fc captured on Protein A chip, soluble ligand injected. (In general: In SPR one partner is held on a chip, and binding of the other changes the refractive index at the surface.)

Assay [2] concerns the target T2, human soluble ULBP3 (hULBP3) (human, UniProt Q9BZM4 30-216).
T2 construct: also called sULBP3
T2 sequence: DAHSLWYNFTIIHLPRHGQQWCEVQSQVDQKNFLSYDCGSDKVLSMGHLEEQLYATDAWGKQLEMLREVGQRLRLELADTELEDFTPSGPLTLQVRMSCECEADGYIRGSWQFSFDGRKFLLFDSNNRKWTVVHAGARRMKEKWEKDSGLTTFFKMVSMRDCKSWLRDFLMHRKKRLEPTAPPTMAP
Briefly: SPR (BIACORE 8K, 37 C); hNKG2D-Fc captured on Protein A, soluble ligand injected.

For assay [3], the target named is T3, human soluble ULBP5 (hULBP5) (human, UniProt Q6H3X3 26-218).
T3 construct: also called sULBP5
T3 sequence: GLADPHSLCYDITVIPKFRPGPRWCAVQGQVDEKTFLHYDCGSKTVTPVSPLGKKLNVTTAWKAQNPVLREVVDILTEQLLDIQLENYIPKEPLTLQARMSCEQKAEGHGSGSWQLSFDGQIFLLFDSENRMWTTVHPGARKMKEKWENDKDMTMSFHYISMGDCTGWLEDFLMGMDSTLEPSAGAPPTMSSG
The assay is described as above.

The target of assay [4] is T4, human soluble ULBP1 (hULBP1) (human, UniProt Q9BZM6 26-215).
T4 construct: also called sULBP1
T4 sequence: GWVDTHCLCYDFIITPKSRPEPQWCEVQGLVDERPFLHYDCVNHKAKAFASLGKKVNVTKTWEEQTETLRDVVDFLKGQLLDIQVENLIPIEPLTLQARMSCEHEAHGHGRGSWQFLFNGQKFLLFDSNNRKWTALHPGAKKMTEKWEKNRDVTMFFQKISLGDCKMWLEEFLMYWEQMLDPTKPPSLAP
The assay is described as above.

Assay [5] deals with T5, human soluble MICA (hMICA) (human, UniProt Q29983 24-308, limits assumed).
T5 construct: also called sMICA
Described as above.

Assay [6] has as its target T6, human soluble ULBP2 (hULBP2) (human, UniProt Q9BZM5 26-216).
T6 construct: also called sULBP2
T6 sequence: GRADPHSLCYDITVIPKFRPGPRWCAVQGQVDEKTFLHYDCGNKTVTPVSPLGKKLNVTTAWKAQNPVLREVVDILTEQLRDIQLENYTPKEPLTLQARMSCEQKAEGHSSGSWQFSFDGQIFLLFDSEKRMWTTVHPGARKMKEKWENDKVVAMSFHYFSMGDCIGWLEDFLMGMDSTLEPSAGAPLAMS
The assay is described as above.

B1: hNKG2D-Fc (human NKG2D 78-216 with C-terminal long huFc-Flag tag) (Fc fusion)
chain: FLNSLFNQEVQIPLTESYCGPCPKNWICYKNNCYQFFDESKNWYESQASCMSQNASLLKVYSKEDQDLLKLVKSYHWMGLVHIPTNGSWQWEDGSILSPNLLTIIEMQKGDCALYASSFKGYIENCSTPNTYICMQRTVGGGGSENLYFQGGGGS[… human IgG1 Fc …]DYKDDDDK
Take B1: the binding result in assay [1] was “no binding (tested: 2 µM (highest concentration injected))”. The Kd – broadly, the constant that tells how readily two partners part at equilibrium – was found to be 594 nM in assay [2]; 207 nM in assay [3]; 125 nM in assay [4]; 79 nM in assay [5]; 220 nM in assay [6].
